Source: US9796662B2 (priority 2010, dated 2017)

Settings: 342 ppm water; for sol (solubility), Adjuvant: test sample as adjuvant (anionic/nonionic blend replacement)
Experimental: Surfactant candidates for water soluble herbicide applications are examined as a replacement for the anionic, nonionic, or anionic/nonionic blend portion and compared to a known industry adjuvant standard for use in paraquat, a water soluble herbicide concentrate formulation. A standard dilution test is conducted whereby the concentrates are diluted in water to determine if solubility is complete.
A known industry paraquat adjuvant (2.8 g) is added and vigorously mixed for 30 s. Deionized water (8.07 g) is added, and mixing resumes for 30 s. Standard 342 ppm water (47.5 mL) is added to a 50-mL Nessler cylinder, which is stoppered and equilibrated in a 30° C. water bath. Once the test water equilibrates, the formulated paraquat (2.5 mL) is added by pipette into the cylinder. The cylinder is stoppered and inverted ten times. Solubility is recorded as complete or incomplete. Cylinders are allowed to stand and the amount (in mL) and type of separation are recorded after 30 min., 1 h, 2 h, and 24 h. Results of the solubility testing appear in Table 8 below.
Anionic test sample: Paraquat (4.57 g of 43.8% active material) is added to a 20-mL glass vial. An eight to ten mole alkyl phenol ethoxylate surfactant (0.7 g) is added and vigorously mixed for 30 s. Test sample (0.7 g) is added and mixing resumes for 30 s. Deionized water (4.03 g) is added, and mixing resumes for 30 s.
Nonionic test sample: Paraquat (4.57 g of 43.8% active material) is added to a 20-mL glass vial. Test sample (0.7 g) is added and vigorously mixed for 30 s. Sodium linear alkylbenzene sulfonate (“NaLAS,” 0.7 g) is added and mixing resumes for 30 s. Deionized water (4.03 g) is added, and mixing resumes for 30 s.
Adjuvant (anionic/nonionic) test sample: Paraquat (4.57 g of 43.8% active material) is added to a 20-mL glass vial. Test sample (1.4 g) is added and vigorously mixed for 30 s. Deionized water (4.03 g) is added, and mixing resumes for 30 s.

Row | SMILES | sol (solubility), Adjuvant | sol (solubility), Nonionic (test sample replaces nonionic portion, with NaLAS)
1 | C=CCCCCCCCC(=O)OCC[N+](C)(C)C [C10-7, C10 DMEA Ester Quat] | S | S
2 | CC/C=C/CCCCCCCC(=O)OCC[N+](C)(C)C [C12-7, C12 DMEA Ester Quat] | S | 
3 | C[N+](C)(C)CCOC(=O)CCCCCCC/C=C/CCCCCCCC(=O)OCC[N+](C)(C)C [Mix-16, C18 diMEA DiQuat] | S | 
